We go through 22 molecules from publication PMC12136788.

To fix the notation:
T1: UNK ZnF1-3 (human, UniProt Q9C0B0 31-174)
T1 sequence: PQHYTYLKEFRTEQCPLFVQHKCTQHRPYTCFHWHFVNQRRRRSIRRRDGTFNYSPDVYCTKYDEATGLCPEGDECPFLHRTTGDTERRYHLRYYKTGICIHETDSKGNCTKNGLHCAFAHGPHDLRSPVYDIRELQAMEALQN

B1: 103876369_103876489_536_5pUTR_ENSG00000155096_ENST00000337198|human|control|control (ssRNA)
RNA: GGGAGUUCUACAGUCCGACGAUCCGCGAUCAGAGCCUGAAAGUGUGAGAAGGCGGCGCCAGCGACGCCAGUAUUUAUAUUAGGGGGCGUGGCCUGGUGACAUCACAGCUGGCCGGGCAGCCGCGCGAGCGGGGCGGAACCCGGCAACAGAGGAUUGAGCAUCA
B2: chr7:99593754:99593755:+_ENSMUSG00000052572_ENSMUST00000098308|mus_mus|FALSE|FALSE (ssRNA)
RNA: GGGAGUUCUACAGUCCGACGAUCCUUUAGUGCCUUCUUUCAGCUUAUAAAUGGCAAAAUAGACAAUUGACAGCCAUAAAGCUAGGCCAGGUGGAAUCUCCUCCUCUCUAAGGUUAGUCCUCCACACAGGACACACUUGUCUUUCAACAGAGGAUUGAGCAUCA
B3: chr2:136607347:136607348:+_ENSMUSG00000027273_ENSMUST00000028727|mus_mus|FALSE|FALSE (ssRNA)
RNA: GGGAGUUCUACAGUCCGACGAUCGAAUAGCCAUGAGGAACCAAAGACAGCACAUUUGGAGAGAUUCAGAGCCUGACACCCUAAGAAAGGAUUGUGGCAGUAGCUCUGUGGAAUGUCACAGUUUUACAAGAACAAUACUGUGUACAACAGAGGAUUGAGCAUCA
B4: chr3:133011071:133011072:+_ENSMUSG00000028013_ENSMUST00000029644|mus_mus|motif|central (ssRNA)
RNA: GGGAGUUCUACAGUCCGACGAUCCAAAGUCCCAAGGAUCUUCACAUGGACCACGUCUCCACGGGAAAGAACCUUUGAGCCGGUUUCACAGACGUCAAUGGGAUCAUUAUCCCCACAGCAGUCGGUGCUCUUAUCUCUUAGGUGCAACAGAGGAUUGAGCAUCA
B5: chr7:149068622:149068623:-_ENSMUSG00000025139_ENSMUST00000001950|mus_hu|mus_mus_mus_hu_False|38_108 (ssRNA)
RNA: GGGAGUUCUACAGUCCGACGAUCGUGCAGGUACUGAGUGUGGCUUGUGGUCUGUCCUGGGUUAGAGUUGUUAAUAUCACGGAACAUACCAUCUAGAGAGGUUCUGCCCCGCCUGACACCUUCAUUCCCAAUGGAGAAGAAAUCCAACAGAGGAUUGAGCAUCA
B6: 85908490_85909826_741_3pUTR_ENSG00000165678_ENST00000372134|human|control|control (ssRNA)
RNA: GGGAGUUCUACAGUCCGACGAUCACUGCACCCAUCACACCAGAAUGUAGCAACCAAGCAAGAUGCUUUGGGCCUGGGCUCUGGUCAUAUGGUAUUGAUCGUACCAGCAUUCCAGCUCCAACCAUGGCUGCAAAGGUCACACCACAACAGAGGAUUGAGCAUCA
B7: chr4:107013644:107013645:+_ENSMUSG00000057375_ENSMUST00000075693|mus_hu|FALSE|FALSE (ssRNA)
RNA: GGGAGUUCUACAGUCCGACGAUCCACAUAAUGGUACGUCUUCUCUCCCAGAUGGAUCAAGAAGUUGGAAAGAUUCCCACUAAUUGCUAUGGCAAAGACCAACGUGGCACAUAUCCAAAAGGGGCCAUAGAGAUCUGGAUUGCUCAACAGAGGAUUGAGCAUCA
B8: 82904206_82904326_3817_CDS_ENSG00000005700_ENST00000306270|human|control|control (ssRNA)
RNA: GGGAGUUCUACAGUCCGACGAUCAGCAACCCAACUGGCAGAGCUGGUAGUAUCAAUUCUGUUACUGGGAAUAGGCUGUGGAGCAGAUAUUUUAAGUAUUGGUGACUUUUCCCAUGGUUUUAAAUCUUCCCUAGAAUACACAGGCAACAGAGGAUUGAGCAUCA
B9: chr17:65337135:65337136:-_ENSG00000197170_ENST00000584008|hu_hu|FALSE|FALSE (ssRNA)
RNA: GGGAGUUCUACAGUCCGACGAUCUCUGGAAGUUGAUAAUUCCUGCUAAUCUGUCUACUUUAGCAAAGAUGGUCUUGUUAACUACUAGAUUUGAGAGAAAGGCUUCGGACUCAUCAACAGAUAGAUCCAGAAGCUGUGCCAUCCCAACAGAGGAUUGAGCAUCA
B10: chr19:8913615:8913616:-_ENSMUSG00000071658_ENSMUST00000096259|mus_hu|mus_mus_mus_hu_False|8_58 (ssRNA)
RNA: GGGAGUUCUACAGUCCGACGAUCAGGGUACCAAAACCUUCUGCCUGAAAUGGGUGCCCCACCCAGUAGGGAGUUGCAGCUAAAAAUAUCUGAUGCAGAAGCAGUGACUAUACGAAAGGAGGCCCCUGAUGCUCAGAAGGCCAGCAACAGAGGAUUGAGCAUCA
B11: chr7:140710375:140710376:-_ENSG00000090263_ENST00000324787|hu_mus|FALSE|FALSE (ssRNA)
RNA: GGGAGUUCUACAGUCCGACGAUCGUUGUGAUUUGGAUACCAGUCAUAAGUCUCUUUCUUCUUGGCCAAGGGCUGCUCGCUAAACAGGCUCACCACUUUCAUGGACUUUGAGUCAGUAGACCUGGCCACUUCACCAAAGAUCCGCAACAGAGGAUUGAGCAUCA
B12: chr1:152005216:152005217:-_ENSG00000163191_ENST00000271638|hu_hu|FALSE|FALSE (ssRNA)
RNA: GGGAGUUCUACAGUCCGACGAUCUCAGGUCCGCUUCUGGGAAGGGACAGCCUUGAGGAAGGAGUCAUGGCAAGCCAUAGCUAGGCCACCAAUCAGAUUAAGAAAUUCUGAGAAAUCUAGCUGACCAUCACUGUUGGUGUCCAGCAACAGAGGAUUGAGCAUCA
B13: 86998487_86999883_1873_CDS_ENSMUSG00000018548_ENSMUST00000041282|mouse|control|control (ssRNA)
RNA: GGGAGUUCUACAGUCCGACGAUCAUGAUGAUAGUCUUCAUUCUGAAUCUUCUCCUCCUCAUCUUCAUCUUCCUUGGUCUCUCGUACAGAAGCGCAAGUAGGACCGCCUUCCAGAAGCAUGUCAGAGCAUGACCCAGCUUUCUUCAACAGAGGAUUGAGCAUCA
B14: 57333804_57335832_82_CDS_ENSG00000174780_ENST00000510663|human|control|control (ssRNA)
RNA: GGGAGUUCUACAGUCCGACGAUCGUUGAUCUGUAGUAUCUUAUUGACGGUCUUGAGAGCGCGCGUGAAGUCGCCGUUCUGGCCAUACCGGUUCACUUCACUCCACAGCGCAGGUACUGACACCCCCCCGCUGCCGCCGCUCGCCAACAGAGGAUUGAGCAUCA
B15: chr11:46405157:46405158:+_ENSG00000110492_ENST00000395566|hu_hu|hu_hu_hu_mus_False|8_48 (ssRNA)
RNA: GGGAGUUCUACAGUCCGACGAUCCCCUCCCCACUUUGGGCACUUGGUGUGGGCGUGAGAGGACAGGCGUGAUUGACAGAGCUGACAAGCAGACAGAAGGCACUGGUGGGUUAUAUCUUGGGCCUGUGAGAGGGAGGGGCUCCGCAACAGAGGAUUGAGCAUCA
B16: chr14:39627603:39627604:-_ENSG00000182400_ENST00000330149|hu_hu|motif|central (ssRNA)
RNA: GGGAGUUCUACAGUCCGACGAUCGAACUUCAUGAUAUCUAACUCAUCCUUGAACCUUGCAGUAUCUUUUGUAAACCUUUCGGUCAAUCCUUGUCCCACUCGAAACCCCAUGUUUUCCAGCUUAGUAAUACAUCGUCCGUUUUCCAACAGAGGAUUGAGCAUCA
B17: chr2:216981417:216981418:+_ENSG00000079246_ENST00000392132|hu_hu|hu_hu_hu_mus_True|58_108 (ssRNA)
RNA: GGGAGUUCUACAGUCCGACGAUCCUGAUACUGAUCCUUGCCAGCAAGGGCAUUAUCAGUGCCAUCUGUGCCAUAGAGGACUAAAGCAAUCUCAUCUUUGCUCUCCGAAAAUACCUGUCGUUGGACAAACAUAGUCAUCACUUUCAACAGAGGAUUGAGCAUCA
B18: chr3:150289932:150289933:+_ENSG00000144895_ENST00000460851|hu_hu|hu_hu_hu_mus_False|28_78 (ssRNA)
RNA: GGGAGUUCUACAGUCCGACGAUCCUUGUAGUUUUUAACAUCCCAUACUUCCAUUUGUCCCCUCAGAUUUCCAAAUCCAGCCAGCACUAAUAUAUGUCCAUGAGGGCUAUAGUAGGCUGCGUUGCGAGGACCAGUCCCAAAGUCCAACAGAGGAUUGAGCAUCA
B19: chr9:95013113:95013114:-_ENSG00000196305_ENST00000443024|hu_hu|hu_hu_hu_mus_False|78_108 (ssRNA)
RNA: GGGAGUUCUACAGUCCGACGAUCCUCAGUGAGAAAAGGCGUGUAAGGGGCCAUCAGUCUGCAAAGAGAAAGCAGGACACUGAACAGUGUCUCCAGAGCCAUGACACAGUCUUCCACCCCACUCUCACCCUUUAACCUCCUCCUCAACAGAGGAUUGAGCAUCA
B20: chr17:32491890:32491891:-_ENSMUSG00000024050_ENSMUST00000163107|mus_hu|FALSE|FALSE (ssRNA)
RNA: GGGAGUUCUACAGUCCGACGAUCGGCCCCCAAGGGGCGCCGGUUUGAGGUUUUGGCUUGCUCCUUUGGAAACGGAAAGAAAGAGGAAGAGGGACAAGGACACAGAGGAGGAAGAAGAGGAGACAGAGGUGGCACGAGAGGGGACAACAGAGGAUUGAGCAUCA
B21: chr2:29001751:29001752:+_ENSG00000213639_ENST00000296122|perfect_dup|FALSE|FALSE (ssRNA)
RNA: GGGAGUUCUACAGUCCGACGAUCAGCCAAUAGCAAACAAAUGGUUUCCAAAGACUGCUUUCCUCUGUCCACAUAAUCUCCUAAGAAAAGAUAGUUGGCUUCUGGUGGGAAACCUCCAUAUUCAAAUAAUCUCAGUAAAUCUGUCAACAGAGGAUUGAGCAUCA
B22: chr7:135834168:135834169:+_ENSMUSG00000042105_ENSMUST00000151237|mus_mus|FALSE|FALSE (ssRNA)
RNA: GGGAGUUCUACAGUCCGACGAUCUUCGUCAUCAUAAUAGGCCACAUAGUAGGCAGCGUUAGACAGCAGCAGCAGCACUUCCACAUCUCUGUGCGCAGCGUCAGUGAGGCGUGCAAGUCUGGAGAGCUUUCACACCGGCACAGUCAACAGAGGAUUGAGCAUCA

The list shows a part of the results.

For the assay, the target named is T1, UNK ZnF1-3. As to the kind of experiment: nsRBNS (natural sequence RNA bind-n-seq); RBNS binding buffer (assumed for nsRBNS): 25 mM Tris pH 7.5, 150 mM KCl, 3 mM MgCl2, 0.01% Triton X-100, 500 ug/ml BSA, 20 U/ml SUPERase-In, 4 C; UNK is unkempt and MSI1 is Musashi-1; names of the RNAs are library labels; protein concentration not given here; high values mean tight binding.
Molecule B1 came in with a binding signal of 1.59 enrichment R. With B2 the figure was 0.869 enrichment R; with B3, 1.71 enrichment R. With B4 the figure was 0.797 enrichment R; with B5, 0.927 enrichment R; with B6, 1.09 enrichment R. In turn, B7 had a binding signal of 1.25 enrichment R. In the case of B8, the binding signal was found to be 2.14 enrichment R. The value for B9 was 1.03 enrichment R. With B10 the figure was 1.01 enrichment R; with B11, 0.39 enrichment R; with B12, 1.22 enrichment R. The value for B13 was 0.94 enrichment R; that for B14 was 0.252 enrichment R; that for B15 was 2.88 enrichment R. The molecule B16 showed a binding signal of 0.595 enrichment R. For the molecule B17, the binding signal is 0.717 enrichment R. The value for B18 was 1.02 enrichment R; that for B19 was 1.41 enrichment R; that for B20 was 2.87 enrichment R. For the molecule B21, the binding signal came to 1.88 enrichment R. The value for B22 was 0.98 enrichment R.
